Read counts are not given, so values of variants with three or more changes are uncertain.
B1: LINE1-mini (parent)
chain: GGCAGAGCUCAACACAGCGUGGCAAAGUGGCUGUGGCUAGACUGCC

Variants of: B1
Assay: self-cleavage, relative activity (ratio to wild type); higher = more cleavage; in vitro, sequencing; the parent is a self-cleaving ribozyme

| Variant | self-cleavage |
| --- | --- |
| G2C C10A G21U | 0.05 |
| G2U A4C A6U C8G A11U | 0.01 |
| G2C G22C U38C | 0.03 |
| G2C C15A G19A | 0.03 |
| G2C G7A G19A | 0.05 |
| G2C G21U G27C G40C | 0.04 |
| G2U A6G G7U C8A G22U C31A | 0.09 |
| G2C C18U G40C | 0.03 |
| G2C G5U G17C C42A | 0.01 |
| G2C G27C G35A | 0.03 |
| G2C C10A C13U U28A G36U C42A | 0 |
| G2C C31U G36U | 0.07 |
| G2C C15A A24U C31A | 0.01 |
| G2C G7U C31U | 0.17 |
| G2C C15A C45G | 0.12 |
| G2C G5A U34A | 0.05 |
| G2C G5C C8U U9G | 0.04 |
| G2U A4U G27A | 0.01 |
| G2U A4U C13G C23G | 0.05 |
| G2C G21U G44A | 0.2 |
| G2C G17A U28C A39C G40U U43G | 0.02 |

| Variant | self-cleavage |
| --- | --- |
| G2C C10U G19C | 0.02 |
| G2C U20C C42A | 0.31 |
| G2C G21A A25G C31U | 0.03 |
| G2C G22A G33U C37A | 0.06 |
| G2C C15G G33A C37U | 0.01 |
| G2C C13A G29U U32G | 0.07 |
| G2C U20G G21U A26U U28A G36A | 0.04 |
| G2C G19U C23A A26U G30U | 0.05 |
| G2C C18G C37U | 0.04 |
| G2C C15U C23U A26C C46A | 0.13 |
| G2C G21A U32A | 0.04 |
| G2C G17A C31G U34C C37A | 0.07 |
| G2C G36A C46U | 0.04 |
| G2U A6G C10U G33C | 0 |
| G2U A4G G22U A24U U34A A39U C46A | 0.07 |
| G2C G17A G21A A26C U43G | 0 |
| G2C G5C C18A G35C | 0.02 |
| G2C U20A C23U G36C U38G C45G | 0.01 |
| G2C C18G A26U | 0.14 |
| G2C C31A G35U C46A | 0.03 |
| G2C U9A A11C C18A G29A G35U G44C | 0.01 |

| Variant | self-cleavage |
| --- | --- |
| G2U A6G A11U C46G | 0 |
| G2C G30A A39G C45A | 0.02 |
| G2C C13U A14U C15A G19U A24U G33A G35U A41U | 0.09 |
| G2C G5C U20G C23U | 0.04 |
| G2C U20G G22C G36C G44C | 0.02 |
| G2C C13A A39U | 0.24 |
| G2C G40A U43A | 0.07 |
| G2C G40A U43G | 0.02 |
| G2C G17C C23G | 0.04 |
| G2C U20A G21A | 0.06 |
| G2C C10U G33C | 0.02 |
| G2C C13A U28A G29C G33A | 0.04 |
| G2C C10A A11U C23G C37U | 0 |
| G2C G29U C31A G44U | 0.19 |
| G2C C13U U20G | 0.01 |
| G2C U28G A39G | 0.01 |
| G2C G5C A11U U20A C23G G29U | 0.01 |
| G2C G17U C23U G33U G36A | 0.2 |
| G2U A4U U20A U32G | 0.06 |
| G2C C13U G17C C18U G27C | 0.11 |
| G2C G33C U34C G44U | 0.02 |

| Variant | self-cleavage |
| --- | --- |
| G2C U9C G35U C46U | 0.03 |
| G2C C18A G40A C42G | 0.06 |
| G2C C10A G30U | 0.03 |
| G2C G40U C42U | 0.03 |
| G2C G7C C10G C18G G29A U34C G35A A41U | 0.01 |
| G2C G21C C45U | 0.28 |
| G2C G7U G22A C37G | 0.08 |
| G2C C15G G17A C23U C37A C46A | 0.05 |
| G2C C10A G36U G44C | 0.05 |
| G2C G17C G27A G33A U43C | 0.02 |
| G2C C13U C23G G29C G35U U43C | 0.03 |
| G2C G7C C45G | 0.51 |
| G2C C10G C13U G35U | 0.03 |
| G2C C10U C37G | 0.02 |
| G2C G22U C42A G44U | 0.09 |
| G2C U9C U38A C45A | 0.01 |
| G2C G7A G19U U43A | 0.2 |
| G2C G5U C8A A12C G21U | 0.02 |
| G2U A6C A16U C31A | 0.03 |
| G2C G36A C37G | 0.02 |
| G2C G5A U28G | 0.02 |

Reference: the RNAGym collection of RNA variant scans (doi:10.7554/elife.90254)
